According to US20130041138A1, “ANTIBODIES THAT BIND TO PSCA PROTEINS FOR DIAGNOSIS OF CANCER” (priority 2003, published 2013):

How the values were obtained:
[1] = target: T1, cell surface PSCA on PSCA-expressing cells (endogenous or recombinant) (Homo sapiens, UniProt O43653); test: PSCA human MAb screening by FACS; assay type: binding
T1 construct: host or cells: PSCA-expressing cells (endogenous or recombinant)
Method: FIGS. 9A and 9B. Screening for human PSCA antibodies by FACS. Antibody concentration from supernatants was determined by ELISA. 50 ul/well of (neat) was added to 96-well FACS plates and serially diluted. PSCA-expressing cells were added (endogenous or recombinant, 50,000 cells/well) and the mixture incubated at 4° C. for two hours. Following incubation, the cells were washed with FACS Buffer and further incubated with 100 ul of detection antibody (anti-hIgG-PE) for 45 minutes at 4° C. At the end of incubation, the cells were washed with FACS Buffer, fixed with formaldehyde and analyzed using FACScan. Data were analyzed using CellQuest Pro software. Solid histograms represent data from negative control cells and open histograms indicate data from PSCA-positive cells.
Primary hybridoma screening for MAbs to PSCA was performed by FACS. The protocol was as follows: 50 ul/well of hybridoma supernatant (neat) or purified antibodies (in serial dilutions) were added to 96-well FACS plates and mixed with PSCA-expressing cells (endogenous or recombinant, 50,000 cells/well). The mixture was incubated at 4° C. for two hours. […] At the end of incubation, the cells were washed with FACS Buffer, fixed with Formaldehyde and analyzed using FACScan. Data were analyzed using CellQuest Pro software. […]

[2] = tested on: HPAC human pancreatic cancer xenografts; test: Subcutaneous HPAC pancreatic cancer xenograft; assay type: in vivo, ICR SCID mice; details: 500 mg/mouse i.p. two times a week, 8 doses, from day of injection; t test
Method: (§1) FIG. 24. Human PSCA MAbs Inhibit the Growth of Pancreatic Cancer Xenografts in SCID mice/Human HPAC. Pancreatic cancer cells (2×10^6/mouse) were injected subcutaneously into immunodeficient ICR SCID mice (Taconic Farm, Germantown, N.Y.). The mice were randomized into groups (n=10 animals/group) and treatment with the indicated human PSCA monoclonal antibody initiated the same day. Antibodies (500 mg/mouse) were delivered intraperitoneally two times a week for a total of 8 doses. […] Statistical analyses were performed using at test (two-sided, α=0.05).
as §1, with “In another experiment,” for “FIG. 24.”, “HPAC pancreatic” for “PSCA MAbs Inhibit the Growth of Pancreatic Cancer Xenografts in SCID mice/Human HPAC. Pancreatic”, “α=0.05) (FIG. 24).” for “α=0.05).”

binding to endogenous cell surface PSCA ([1]; PSCA expressed in prostate cancer xenograft cells): bind endogenous cell surface PSCA
B1: Ha1-1.16: fully human gamma 1 anti-PSCA monoclonal antibody, PSCA-GST immunization; ATCC PTA-6698; sequences FIG. 2J-2K (antibody)
VH: QVQLQQSGPGLVKPSQTLSLTCAISGDSVSSNSAAWNWIRQSPSRGLEWLGRTYYRSKWYNGYAVSVKSRMTINPDTSKNQFSLQLNSVTPEDTAVYYCARERLGELYGMDVWGQGTTVTVSSASTKGPSVFPLAPSSKST
VL: QLTQSPDSLAVSLGERATINCKSSQNILYRSSKKNHLVWYQQKPGQPPKLLIYWASTRESGVPARFSGSGSGTDFTLTISTLQAEDVAVYYCQQYYSTPPTFGQGTRLEIKRTVAAPSVFIFPPSDEQLKSGTASVVCLLNNFYPREAKVQWKVDNALQSG
react and bind with cell surface or immobilized PSCA [1]: react and bind with cell surface or immobilized PSCA
inhibition of subcutaneous tumor growth [2]: significantly inhibited the growth
